Measurements as given in PubChem BioAssay AID1345082 (National Center for Advancing Translational Sciences (NCATS), 2018).
Hit rate of the full screen: of about 94,000 compounds, about 4,000 (4.3%) were called active. This list was built around the results that the source calls inconclusive (neither active nor inactive); the mix of calls is not that of the screen. Calls come from the whole dose curve; as a rule, active = well fitted inhibition curve with a large enough effect; inconclusive = small, poorly fitted or top-dose-only effect; inactive = no such curve, though single readings can be large or run the other way. Where the call is inconclusive, the potency comes from a doubtful curve fit.

Test: Cytotoxic Profiling in NIH 3T3 Cell Line of Diverse Libraries Using Quantitative High-Throughput Screening; note: nearly all actives have a fitted effect of over 55% in size
Details: NIH 3T3 viability, CellTiter-Glo ATP luminescence, 48-72 h; series mostly up to 96.7 µM
Outline: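 Mouse fibroblast NIH 3T3 cells, 400 per well, received compound via pintool and were incubated for 48 or 72 hr prior to CellTiter-Glo ATP luminescence measurement.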
Potency is the fitted concentration of half-maximal effect; tags give direction and shape of the fitted curve.

| SMILES | Potency |
| --- | --- |
| Cc1cc2nc3n(c(=O)c2n1CC(=O)NCc1ccc(F)cc1)CCCCC3 | inconclusive: 70.8 µM [inhibitor, partial curve, poor fit] |
| Cn1ncc2c(C(=O)NCc3ccccc3)cc(-c3ccccc3C(F)(F)F)nc21 | inconclusive: 39.8 µM [inhibitor, partial curve] |
| Cc1ccc(-c2cccc(CN3CCCC(NC(=O)NC4CCCC4)C3)c2)cc1Cl (stereo not drawn) | inactive |
| CN(C)C[C@@H]1CN(Cc2ccccc2)C[C@H]1NS(=O)(=O)c1ccc(C#N)cc1 | inconclusive: 39.8 µM [inhibitor, partial curve, poor fit] |
| COCC1CN(C(C)=O)CC12CCN(Cc1sccc1C)CC2 (stereo not drawn) | inactive |
| N#Cc1cccc(C(=O)N2CCC3(CC2)CC(Cc2ccc(F)cc2)CCO3)c1 (stereo not drawn) | inconclusive: 44.7 µM [inhibitor, partial curve, poor fit] |
| Cc1ccc(NC(=O)N2CCc3c(c4ccccc4n3CC3CC3)C2)cc1 | active: 25.1 µM |
| Cn1ncc2c(C(=O)N3CCN(Cc4ccccc4)CC3)cc(-c3ccc(C(F)(F)F)cc3)nc21 | inconclusive: 44.7 µM [inhibitor, partial curve, poor fit] |
| CCCCc1ccc(NC(=O)CN2C(=O)NC3(CCCCC3)C2=O)cc1 | inconclusive: 50.1 µM [inhibitor, partial curve, poor fit] |
| COc1nccc(N2CCC(CC(=O)NC3CCN(Cc4ccccc4)CC3)CC2)n1 | inconclusive: 5.62 µM [inhibitor, partial curve, poor fit] |
| CCCNC(=O)C1COC2(CCN(C(=O)c3ccc(OC)cc3)CC2)N1C(=O)c1ccc(F)cc1 (stereo not drawn) | inactive |
| O=C(NCc1ccc(F)cc1)C1CCN(c2cc(C(F)(F)F)ncn2)CC1 | inconclusive: 35.5 µM [inhibitor, partial curve, poor fit] |
| Cc1noc(C2CC3(CCN(C(=O)c4sc(C)nc4C)CC3)CN2C)n1 (stereo not drawn) | inactive |
| CCOc1ccc(C2Cn3nnc(-c4nc(C(C)(C)C)no4)c3CO2)cc1 (stereo not drawn) | inactive |
| Cc1nnc2ccc(N3CCC(N[S+](=O)([O-])c4ccccc4)CC3)nn12 | active: 31.6 µM |
| COc1ccc2[nH]c(C[C@@H]3C[C@@H](C(C)C)[C@H](CNCc4ccccc4O)C=C3C)nc2n1 | active: 35.5 µM |
| COc1ccc(Nc2nc(-c3c(C)noc3C)cc3cc(CO)oc23)cc1OC | inconclusive: 44.7 µM [inhibitor, partial curve, poor fit] |
| COc1ccc(Cn2c(=O)c(C(=O)N3CCCC3)nc3cccnc32)cc1 | inactive |
